# Source: PubChem BioAssay (Tox21)
# Results filed as inconclusive are left out. Calls follow the shape of the dose curve; as a rule, active = well fitted activation curve with a large enough effect in the repeat runs; inconclusive = weak or mixed curves; inactive = flat fitted curve, though single readings scatter. A structure can be active in one record and inactive in another. The source holds more than one record for some entries. This is not the full list of results. The source may hold further records. The values listed for one entry are repeated measurements across runs, samples, wells, individuals or studies. What stands in brackets tells the records apart. Letters count within one entry.
# Assay: A CellTox Green Cytotoxicity Assay to monitor cytotoxicity in HEK293 cells - 24 hour (AID 1224875); also: nearly all actives have a fitted effect of over 45% in size
# Conditions: CellTox Green fluorescence; series mostly up to 76.8 µM
# Summary of the method: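 HEK293 cells, 600/well, were preincubated 5 hours and then exposed to compounds at 37 C for up to 40 hours. A cell-impermeant cyanine dye staining dead-cell DNA was read by fluorescence at 0, 8, 16, 24, 32 and 40 h time points.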
# Potency is read from the fitted curve at half-maximal effect.
row,SMILES,Potency
1,Clc1ccc(C(c2ccc(Cl)cc2)C(Cl)(Cl)Cl)cc1,active: 55.3 µM [sample A] and inactive [sample B] and inactive [sample C]
2,Oc1ccc(C(c2ccc(O)cc2)(C(F)(F)F)C(F)(F)F)cc1,active: 38.7 µM [sample A] and inactive [sample B]
3,Clc1ccc(COC(Cn2ccnc2)c2ccc(Cl)cc2Cl)cc1 (centres undefined),active: 45.7 µM [sample A] and active: 48.8 µM [sample B] and inactive [sample C]
4,CC(C)CC(C)(c1ccc(O)cc1)c1ccc(O)cc1,active: 49.1 µM [sample A] and inactive [sample B]
